Kd and koff data for one molecule are collected here from PMC5660122 (2017).

Among the targets are 2V-BA11-2V (Squalus acanthias); 2V-BB11-2V (Squalus acanthias); 2V-E06-2V (Squalus acanthias | dogfish); humanized E06 BA11; humanized E06 v2.4-2G; humanized E06 BB11.
Experiment in all cases: SPR
Background: Surface plasmon resonance follows binding to a sensor surface in real time, without labels.

Sequence of 2V-BA11-2V (P07724 25-608): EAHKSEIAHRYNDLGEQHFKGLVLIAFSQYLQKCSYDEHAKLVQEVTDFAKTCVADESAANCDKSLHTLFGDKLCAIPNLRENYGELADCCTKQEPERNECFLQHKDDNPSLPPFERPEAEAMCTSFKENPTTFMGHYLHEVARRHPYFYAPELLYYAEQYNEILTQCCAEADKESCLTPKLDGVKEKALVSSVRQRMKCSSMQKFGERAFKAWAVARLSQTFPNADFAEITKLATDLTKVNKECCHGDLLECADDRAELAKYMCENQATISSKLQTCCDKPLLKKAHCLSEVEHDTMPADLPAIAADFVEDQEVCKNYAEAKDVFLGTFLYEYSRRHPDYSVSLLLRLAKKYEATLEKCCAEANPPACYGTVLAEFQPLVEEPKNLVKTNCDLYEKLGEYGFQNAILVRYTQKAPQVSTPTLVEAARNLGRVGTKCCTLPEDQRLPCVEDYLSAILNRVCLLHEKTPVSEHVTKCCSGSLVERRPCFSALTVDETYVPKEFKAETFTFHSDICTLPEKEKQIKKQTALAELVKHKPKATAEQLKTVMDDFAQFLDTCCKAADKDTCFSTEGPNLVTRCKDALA
Sequence of 2V-E06-2V (P07724 25-608): as above
Sequence of 2V-BB11-2V (P07724 25-608): as above
Sequence of humanized E06 BA11 (P07724 25-608): as above
Sequence of humanized E06 v2.4-2G (P07724 25-608): as above
Sequence of humanized E06 BB11 (P07724 25-608): as above

B1: mouse serum albumin (natural protein)
chain: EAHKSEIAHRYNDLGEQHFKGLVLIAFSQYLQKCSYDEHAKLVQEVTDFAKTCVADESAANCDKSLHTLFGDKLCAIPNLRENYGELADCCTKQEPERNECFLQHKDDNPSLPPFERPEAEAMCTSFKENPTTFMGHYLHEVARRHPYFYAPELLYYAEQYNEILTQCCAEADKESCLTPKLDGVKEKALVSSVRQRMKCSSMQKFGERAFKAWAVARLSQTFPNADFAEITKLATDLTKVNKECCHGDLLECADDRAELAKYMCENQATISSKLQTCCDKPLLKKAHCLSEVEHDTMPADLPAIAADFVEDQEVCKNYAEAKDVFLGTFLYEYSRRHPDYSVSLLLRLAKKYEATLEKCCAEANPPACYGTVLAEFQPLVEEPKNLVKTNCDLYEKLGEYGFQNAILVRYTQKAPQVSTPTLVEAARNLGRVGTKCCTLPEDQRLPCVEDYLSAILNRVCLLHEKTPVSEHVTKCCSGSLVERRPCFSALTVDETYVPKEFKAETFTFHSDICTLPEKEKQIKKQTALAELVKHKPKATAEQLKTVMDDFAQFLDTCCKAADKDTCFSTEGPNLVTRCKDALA
A word on the Kd: it is a measure of binding affinity in units of concentration. A higher Kd goes with lower affinity. What is called koff is the first-order rate constant of dissociation. Low readings indicate slow dissociation, high ones fast dissociation. With B1, the Kd with 2V-BA11-2V worked out at 53.6 nM; in the assay with 2V-BB11-2V, 0.38 nM; with 2V-E06-2V, 0.42 nM; with humanized E06 BA11 it was 99 nM; with humanized E06 v2.4-2G, 2.15 nM; with humanized E06 BB11, 5.39 nM. The koff in the assay with 2V-BA11-2V came out at 0.00154 s⁻¹; with 2V-BB11-2V it was 0.00414 s⁻¹; with 2V-E06-2V, 0.000771 s⁻¹.
